{"source": "PubChem BioAssay AID904", "about": "(National Center for Advancing Translational Sciences (NCATS), 2007)", "note": "Hit rate of the full screen: of about 55,000 compounds, about 530 (0.96%) were called active. This list was built around the results that the source calls inconclusive (neither active nor inactive); the mix of calls is not that of the screen. Calls come from the whole dose curve; as a rule, active = well fitted cell-killing curve with a large enough effect; inconclusive = small, poorly fitted or top-dose-only effect; inactive = no such curve, though single readings can be large or run the other way. Potencies beside an inconclusive call are fits to weak or partial responses and may not hold up. Potency is the fitted concentration of half-maximal effect; tags give direction and shape of the fitted curve."}
{"experiment": "qHTS Screen for Compounds that Selectively Target Cancer Cells with p53 Mutations: Cytotoxicity of p53 Null Cells at the Nonpermissive Temperature; note: nearly all actives have a fitted effect of over 50% in size;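 for activity, negative = cell killing: 0% = DMSO only and -100% = full killing by 100 µM tamoxifen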", "details": "H1299 p53-null (neo) cells, 39C, ATPlite viability, 24 h; activity, negative = cell killing: at 46.1 µM (top of the series)", "outline": "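Temperature-shift cytotoxicity format: compound titrations on p53-null or A138V-expressing H1299 cells held 24 hr at 39C, cell ATP then measured, AC50 from Hill model.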"}
{"smiles": "Cc1ccc(C)c(CSC2=NC(C)(C)Nc3ccccc32)c1", "Potency": "inconclusive: 22.4 µM [cytotoxic, single point]"}
{"smiles": "COc1ccc(CN(C)S(=O)(=O)c2nnc(NC(=O)C(C)C)s2)cc1OC", "Potency": "inconclusive: 0.0045 µM [cytotoxic, full curve, poor fit]"}
{"smiles": "COc1ccc(CCNC(=O)Cn2c(=O)cc(C(F)(F)F)c3c(C)nn(C)c32)cc1OC", "activity, negative = cell killing": "inactive: -2.97%"}
{"smiles": "Cc1cccc(N2CCN(C(=O)c3ccc4c(c3)c(C)c(C)n4C)CC2)c1C", "activity, negative = cell killing": "inactive: -13.6%"}
{"smiles": "COc1ccc(C(=O)Nc2cnc3ccccn3c2=O)cc1", "Potency": "inconclusive: 12.6 µM [cytotoxic, single point]"}
{"smiles": "CCOC(=O)c1c(NC(=O)c2ccc(S(=O)(=O)N3CCC(C)CC3)cc2)sc2c1CCN(C(C)C)C2", "activity, negative = cell killing": "inactive: 21.1%"}
{"smiles": "Cc1cccc(NS(=O)(=O)c2ccc3[nH]c(=O)[nH]c3c2)c1C", "activity, negative = cell killing": "inactive: -13.1%"}
{"smiles": "CCc1ccc(NC(=O)CSc2nc3n[nH]c(C)c3c(=N)n2-c2ccc(C)cc2)cc1", "Potency": "inconclusive: 22.4 µM [cytotoxic, single point]"}
{"smiles": "COc1ccc(OC)c(NC(=O)CCNS(=O)(=O)c2cccc3nsnc23)c1", "Potency": "inconclusive: 0.0158 µM [cytotoxic, full curve, poor fit]"}
{"smiles": "Cn1nc(-c2ccccc2F)c2cc(C(=O)NCc3ccc(Cl)cc3)sc21", "activity, negative = cell killing": "inactive: -7.96%"}
{"smiles": "COc1ccccc1CNS(=O)(=O)c1ccc(-c2cc(C(F)(F)F)on2)s1", "Potency": "inconclusive: 14.1 µM [cytotoxic, single point]"}
{"smiles": "CCOc1ccc(S(=O)(=O)NCC(c2ccco2)S(=O)(=O)c2ccc(C)cc2)cc1", "note": "(configuration not stated)", "activity, negative = cell killing": "inactive: -4.75%"}
{"smiles": "COc1ccccc1C(=O)Nc1ccc(NC(=O)c2cccs2)cc1", "Potency": "inconclusive: 10 µM [cytotoxic, partial curve]"}
{"smiles": "CCOC(=O)c1c(Nc2cccc(C(=O)OC)c2)nnc(-c2ccccc2)c1-c1ccccc1", "Potency": "inconclusive: 11.2 µM [cytotoxic, partial curve]"}
{"smiles": "CC(C)Oc1ccc(CNC(=O)C2CCN(C(=O)N3CC(C)Oc4ccccc43)CC2)cc1", "note": "(configuration not stated)", "Potency": "inconclusive: 15.8 µM [cytotoxic, partial curve]"}
{"smiles": "CC(C)NC(=O)C1CCC(Cn2c(=O)c3sccc3n(CC(=O)Nc3ccccc3)c2=O)CC1", "note": "(configuration not stated)", "activity, negative = cell killing": "inactive: 1.32%"}
{"smiles": "COc1ccc(-c2csc3nc(-c4ccccc4)oc(=O)c23)cc1OC", "Potency": "inconclusive: 15.8 µM [cytotoxic, single point]"}
{"smiles": "Cc1ccccc1C(=O)Nc1nc(-c2ccc(Br)cc2)ns1", "Potency": "inconclusive: 20 µM [cytotoxic, single point]"}
{"smiles": "Cc1ccc(Cl)cc1NC(=O)CCn1c(=O)c2cccn2c2cccnc21", "activity, negative = cell killing": "inactive: 9.74%"}
{"smiles": "CCOC(=O)c1c(C)[nH]c(C)c1S(=O)(=O)N(C)CC(=O)NCc1cccc(Br)c1", "activity, negative = cell killing": "inactive: -4.94%"}
{"smiles": "CCCCNC(=O)CCn1c(=O)c2ccccc2n(Cc2cccc(Cl)c2)c1=O", "Potency": "inconclusive: 0.005 µM [cytotoxic, full curve, poor fit]"}
{"smiles": "Cc1noc(/C=C/c2ccccc2F)c1S(=O)(=O)N1CCC(C(=O)Nc2ccc(C#N)cc2)CC1", "Potency": "inconclusive: 0.631 µM [cytotoxic, full curve, poor fit]"}
{"smiles": "Cc1ccc2c(CNC3CCCC3)c(C(=O)O)n(Cc3ccc(F)cc3)c2c1", "Potency": "inconclusive: 25.1 µM [cytotoxic, single point]"}
{"smiles": "O=C(Cn1cc(SCc2ccc(F)cc2)c2ccccc21)N1CCCCCC1", "activity, negative = cell killing": "inactive: -14.4%"}
{"smiles": "Cc1ccccc1Cn1nnc2c(=O)[nH]c(C3CCCN(C(=O)c4ccc(C(C)(C)C)cc4)C3)nc21", "note": "(configuration not stated)", "Potency": "inconclusive: 35.5 µM [cytotoxic, single point]"}
{"smiles": "CCCCCCCC(=O)N/N=C/c1ccc([N+](=O)[O-])o1", "Potency": "inconclusive: 35.5 µM [cytotoxic, single point]"}
{"smiles": "CCOc1ccc(C2CC(=O)c3c([nH]c(C(=O)OCCOc4ccccc4)c3C)C2)cc1", "note": "(configuration not stated)", "Potency": "inconclusive: 12.6 µM [cytotoxic, partial curve]"}
{"smiles": "CC(=O)N1CCCc2cc(S(=O)(=O)N3CCC(C(=O)N(C)C4CCCCC4)CC3)ccc21", "activity, negative = cell killing": "inactive: -13.6%"}
{"smiles": "COc1ccc(CCNC(=O)CCc2c(C)nc3cc(-c4ccc(Cl)cc4)nn3c2C)c(OC)c1", "activity, negative = cell killing": "inactive: -13.7%"}
{"smiles": "Cc1noc(/C=C/c2ccccc2F)c1S(=O)(=O)N1CCC(C(=O)NCc2ccco2)CC1", "activity, negative = cell killing": "inactive: -18.6%"}
{"smiles": "CSc1nn(CC(=O)Nc2ccc(C)cc2C)c(N)c1S(=O)(=O)c1ccc(Cl)cc1", "Potency": "inconclusive: 28.2 µM [cytotoxic, single point]"}
{"smiles": "Cc1ccc(NS(=O)(=O)c2ccc3nc(-c4ccccc4)[nH]c3c2)cc1Cl", "Potency": "inconclusive: 31.6 µM [cytotoxic, single point]"}
{"smiles": "Cc1nc2c(-c3ccccc3)c(C)nn2c(N)c1-c1ccccc1", "Potency": "inconclusive: 12.6 µM [cytotoxic, single point]"}
{"smiles": "Cc1c(C(=O)N(C)Cc2ccccc2)sc2nc(-c3ccc(F)cc3)cn12", "Potency": "inconclusive: 15.8 µM [cytotoxic, partial curve]"}
{"smiles": "Cc1nc2sc(C)c(C)n2c(=O)c1S(=O)(=O)N1CCN(c2ccccc2F)CC1", "Potency": "inconclusive: 15.8 µM [cytotoxic, single point]"}
{"smiles": "Cc1cccc(C)c1NC(=O)Cn1c(=O)n(Cc2ccc(C(=O)NCc3ccco3)cc2)c(=O)c2sccc21", "Potency": "inconclusive: 25.1 µM [cytotoxic, single point]"}
{"smiles": "N#Cc1c[nH]n2c(NC3CCCC3)c(-c3cccc(Br)c3)nc12", "Potency": "inconclusive: 11.2 µM [cytotoxic, single point]"}
{"smiles": "COc1ccccc1CCNC(=O)C(=O)NCC(c1ccco1)S(=O)(=O)c1cccs1", "note": "(configuration not stated)", "activity, negative = cell killing": "inactive: -6.38%"}
{"smiles": "Cc1ccc(C(C(=O)NC2CCCCC2)N(C)Cc2ccccc2)cc1", "note": "(configuration not stated)", "Potency": "inconclusive: 20 µM [cytotoxic, single point]"}
{"smiles": "O=C(CCCCn1c(=O)[nH]c2ccsc2c1=O)N1CCN(c2cccc(C(F)(F)F)c2)CC1", "activity, negative = cell killing": "inactive: 2.6%"}
{"smiles": "Cc1ccc(NC(=O)c2c(NC(=O)C(F)(F)F)sc3c2CCCCC3)cc1", "Potency": "inconclusive: 2.24 µM [cytotoxic, full curve, poor fit]"}
{"smiles": "Cc1c(C(=O)N2CCC(C)CC2)c(S(=O)(=O)Nc2ccc(OC(F)(F)F)cc2)c(C)n1C", "Potency": "inconclusive: 0.01 µM [cytotoxic, full curve, poor fit]"}
